According to PubChem BioAssay AID1345083 (National Center for Advancing Translational Sciences (NCATS), 2018):
In all, about 94,000 compounds went through this assay and about 6,200 (6.6%) were called active. This list was built around the results that the source calls inconclusive (neither active nor inactive); the mix of calls is not that of the screen. Calls follow the shape of the dose curve; as a rule, active = well fitted inhibition curve with a large enough effect; inconclusive = small, poorly fitted or top-dose-only effect; inactive = flat fitted curve, though single readings scatter. Potencies of inconclusive entries are doubtful fits and often do not repeat.
% is scaled to controls: 0 for no effect and ±100 for the full control effect; potency is read from the fitted curve at half-maximal effect; tags tell the direction and shape of the fitted curve.

Assay: Cytotoxic Profiling in HEK 293 Cell Line of Diverse Libraries Using Quantitative High-Throughput Screening; also: nearly all actives have a fitted effect of over 60% in size
Details: HEK 293 viability, ATP luminescence (CellTiter-Glo), 48-72 h; activity change, negative = cytotoxicity: at 115 µM (top of the series) unless noted; series mostly up to 115 µM
Outline: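 Luminescence from cellular ATP, measured with CellTiter-Glo, indicates HEK 293 viability. Cells plated at 250 cells/well are treated with compound for 48 or 72 hr at 37 degree Celsius before reagent addition.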
With `COc1ccc(-c2ccc(C(=O)Nc3ccc(F)cc3)cc2)nn1` the “activity change, negative = cytotoxicity” value was inactive: -28% [at 172 µM].
With `CCc1ccc(CN2CCC(C(=O)Nc3ccc(Oc4cccnc4)cc3)CC2)o1` the Potency was inconclusive: 50.1 µM [inhibitor, partial curve, poor fit].
With `O=C(NCc1ccccc1)[C@@H]1Cc2nc[nH]c2CN1Cc1cc2ccccc2o1` the Potency was inconclusive: 126 µM [inhibitor, single point].
For `COCCN1C(=O)CCc2cc(NC(=O)COC)ccc21`, the “activity change, negative = cytotoxicity” value was inactive: 5.75%.
With `O=C(c1csc2c1CCCC2)N1CCCC(OCc2ccccn2)C1` (configuration not stated) the Potency was inconclusive: 35.5 µM [inhibitor, partial curve, poor fit].
With `COc1ccccc1C(=O)N1CCc2nc(C)nc(-c3ccc(Cl)cc3)c2C1` the Potency was inconclusive: 44.7 µM [inhibitor, partial curve, poor fit].
With `Cc1ccc(NC(=O)Cn2ccn3nc(-c4ccccc4)c(CO)c3c2=O)cc1F` the Potency was inconclusive: 56.2 µM [inhibitor, partial curve, poor fit].
For `Cc1nnc2ccc(N3CCCC(NC(=O)c4cccc(Cl)c4)C3)nn12` (configuration not stated), the Potency was active: 79.4 µM.
With `Cc1cc(C)cc(C(=O)N2CCC(n3cc(-c4nc(-c5ccccc5)no4)nn3)C2)c1` (configuration not stated) the Potency was inconclusive: 56.2 µM [inhibitor, partial curve, poor fit].
With `CC(Cc1ccc2c(c1)OCO2)CN1CCC(CO)(CN2CCCC2)CC1` (configuration not stated) the Potency was inconclusive: 56.2 µM [inhibitor, partial curve, poor fit].
With `CCn1nccc1C(=O)N1CCC2(CC1)CN(C1CCC1)CC2COC` (configuration not stated) the “activity change, negative = cytotoxicity” value was inactive: -20.1%.
In the case of `O=C1NCCCCCCN(Cc2ccncc2)[C@@H]2CN(C(=O)C3CCCCC3)CC[C@@H]12`, the Potency is reported as active: 44.7 µM.
In the case of `Cc1nn(-c2ccccc2)c2c1C(C1CC1)N(C1CN(C(=O)Cc3cccc(Cl)c3)C1)C2=O` (configuration not stated), the Potency is reported as active: 25.1 µM.
In the case of `COc1cc(NC(=O)C2CCc3ncc(-c4ccsc4)n3C2)cc(OC)c1` (configuration not stated), the Potency is reported as inconclusive: 79.4 µM [inhibitor, single point].
In the case of `COc1ccc(Nc2ccnc(N3CCN(C(=O)c4ccc(Cl)cc4)CC3)n2)cc1`, the Potency is reported as active: 17.8 µM.
With `O=C(c1cc(F)ccc1F)N1CCC(Cc2noc(C3CC3)n2)C1` (configuration not stated) the “outcome” value was “inactive”.
With `CCOC(=O)C1CCN(C(=O)c2nc3sccn3c2-c2ccc(C(F)(F)F)cc2)CC1` the “activity change, negative = cytotoxicity” value was inactive: -26.5%.
In the case of `O=C(Cc1ccccn1)NCCNC(=O)c1ccc(-c2cncnc2)cc1`, the Potency is reported as active: 89.1 µM.
For `O=C(NCc1ccccc1)C1=NO[C@@H]2CN(Cc3cccc(F)c3)C[C@H]12`, the Potency was active: 44.7 µM.
For `Cc1n[nH]c(C)c1CCC(=O)NC1CCCc2c1[nH]c1ccc(F)cc21` (configuration not stated), the Potency was inconclusive: 44.7 µM [inhibitor, partial curve, poor fit].
With `COC(=O)[C@H](Cc1ccc(OC)cc1)NC(=O)[C@H]1CN(C(C)=O)CCN1S(=O)(=O)c1ccccc1` the “outcome” value was “inactive”.
With `COc1ccc(NC(=O)N2Cc3[nH]cnc3C[C@H]2c2nc(-c3ccc(C(F)(F)F)cc3)no2)cc1` the Potency was inconclusive: 44.7 µM [inhibitor, partial curve, poor fit].
With `COc1ccc(-c2cc(N3CCCC(NC(=O)c4cccc(NC(C)=O)c4)C3)n[nH]2)cc1` (configuration not stated) the Potency was inconclusive: 39.8 µM [inhibitor, full curve, poor fit].
In the case of `O=C(Cc1ccc(F)cc1)Nc1cccc(-c2nnc3n2CCCC3)c1`, the Potency is reported as inconclusive: 89.1 µM [inhibitor, single point].
With `COc1ccc(CC(=O)N2CCC(N3CC4CC(C3)[C@H]3CCCC(=O)N3C4)CC2)cc1Cl` (some centres not stated) the “activity change, negative = cytotoxicity” value was inactive: -21.2%.
For `Cc1ccc([S+](=O)([O-])N2CCCC(c3nn(-c4ccc(F)cc4)c(=O)[nH]3)C2)cc1` (configuration not stated), the Potency was inconclusive: 89.1 µM [inhibitor, single point].
In the case of `CN1CCC(C(=O)N2Cc3ccccc3CC3(CCCCN3CC3CCNCC3)C2)CC1` (configuration not stated), the “activity change, negative = cytotoxicity” value is reported as inactive: -10.7%.
In the case of `Cc1cc(CN2CCC3(CC2)CCN(C(=O)c2ccccn2)CC3CO)on1` (configuration not stated), the “activity change, negative = cytotoxicity” value is reported as inactive: -5.31%.
With `CC(C)(C)C(=O)N1C[C@H]2OC(=O)N(CCc3cccc(Cl)c3)[C@H]2C1` the “activity change, negative = cytotoxicity” value was inactive: -0.821%.
With `Cc1cc(C)nc(N2CCC(COc3ccc4c(cnn4CCC(=O)O)c3)CC2)n1` the Potency was inconclusive: 112 µM [inhibitor, single point].
With `O=C(CCC1CCN(S(=O)(=O)c2ccccc2)CC1)N1CCCC1` the Potency was inconclusive: 89.1 µM [inhibitor, single point].
In the case of `CC(C)N1CCOC(CC(=O)NCc2cc(N3CCOCC3)ncn2)C1` (configuration not stated), the “activity change, negative = cytotoxicity” value is reported as inactive: -28.4%.
With `COc1ccccc1-c1ccc(C(=O)N2CCC(C(=O)NCc3ccc(F)cc3)CC2)cc1` the Potency was inconclusive: 39.8 µM [inhibitor, partial curve, poor fit].
With `CC1(C)[C@H](Cc2cc(CCO)on2)C[C@@H]1NC1CCC1` the “activity change, negative = cytotoxicity” value was inactive: -27.5% [at 230 µM].
With `Cc1nc(-c2ccc(Cl)cc2)n(Cc2cc(F)cc(F)c2)c(=O)c1CCO` the Potency was inconclusive: 50.1 µM [inhibitor, partial curve, poor fit].
For `O=c1n(CC2CC2)nc2n1CCN(S(=O)(=O)Cc1ccccc1)CC2`, the “activity change, negative = cytotoxicity” value was inactive: -17.9%.
With `O=C(Cc1cccc(Cl)c1)N1CCC(n2c(=O)[nH]c3ccccc32)CC1` the Potency was inconclusive: 56.2 µM [inhibitor, partial curve, poor fit].
With `COCC(=O)N1CCC(N2C(=O)c3c(c(C)nn3-c3ccccc3)C2C(C)C)C1` (configuration not stated) the “activity change, negative = cytotoxicity” value was inactive: -2.92%.
For `COc1cccc(C(=O)N2CCC(N3C[C@H](O)C[C@H]3C(=O)N3CC=C(c4ccccc4)CC3)CC2)c1`, the Potency was active: 79.4 µM.
For `COc1cccc(C(CC(=O)NCCc2ccc(OC)c(OC)c2)c2c[nH]c3ccccc23)c1` (configuration not stated), the Potency was active: 44.7 µM.
For `COc1ccc(C(=O)N2CCCC(n3cc(-c4nc(-c5ccccc5)no4)nn3)C2)cc1` (configuration not stated), the Potency was active: 28.2 µM.
With `Cc1cc(C)cc(NC2=N[C@H]3[C@@H](O)[C@H](O)C[C@H](C(=O)NCCN4CCCCC4)[C@H]3S2)c1` the “outcome” value was “inactive”.
For `CC[C@H]1CN(Cc2ccc(OC)cc2O)CC[C@H]1CC(=O)N1CCOCC1`, the “activity change, negative = cytotoxicity” value was inactive: -4.31% [at 172 µM].
With `COc1ncccc1-c1cnc2[nH]cc(CC(=O)N(C)Cc3ccccc3)c2c1` the Potency was inconclusive: 70.8 µM [inhibitor, full curve, poor fit].
In the case of `O=C(NCCCc1ccccc1)c1cn2cc(-c3cccc(C(F)(F)F)c3)sc2n1`, the Potency is reported as inconclusive: 89.1 µM [inhibitor, single point].
For `Cn1ncc2c(C(=O)NCc3ccc(C(F)(F)F)cc3)cc(-c3ccccc3C(F)(F)F)nc21`, the Potency was active: 17.8 µM.
For `Cc1ccc(NC(=O)c2ccc3c(c2)N(C)C2CCCCCN2C3=O)cc1` (configuration not stated), the Potency was inconclusive: 50.1 µM [inhibitor, partial curve, poor fit].
For `COc1ccc(-c2noc([C@@H]3CCCN3C(=O)c3cc(Cl)ccc3OC)n2)cc1`, the Potency was active: 25.1 µM.
With `Cc1nccc(N2CCC(COc3cnc4c(ccn4CC(N)=O)c3)CC2)n1` the Potency was inconclusive: 63.1 µM [inhibitor, partial curve, poor fit].
With `COc1cccc(N2C(=O)NC(=NC3CCCC3)C23CCN([S+](=O)([O-])c2cccc(C(F)(F)F)c2)C3)c1` (configuration not stated) the “activity change, negative = cytotoxicity” value was inactive: -26.4%.
For `CCn1nccc1C(=O)N1CCC2(CC1)C(OC)CN2c1cccc(F)c1` (configuration not stated), the Potency was inconclusive: 89.1 µM [inhibitor, single point].
In the case of `CC(=O)c1cccc(C(=O)N2CCC3(CC2)NC(=O)N(Cc2cccc(Cl)c2)C3=O)c1`, the Potency is reported as inconclusive: 89.1 µM [inhibitor, single point].
For `CCCNC(=O)c1cccc2c1CCN2S(=O)(=O)c1ccc(OC)cc1`, the Potency was inconclusive: 35.5 µM [inhibitor, full curve].
In the case of `CN[C@@H](CO)C(=O)NCc1nc(-c2ccc(C)cc2)c(-c2ccccn2)[nH]1`, the Potency is reported as inconclusive: 89.1 µM [inhibitor, partial curve, poor fit].
For `CCOc1ccccc1CN1CCC2(CCN(C(=O)c3ccccc3C)CC2)Oc2ccccc21`, the Potency was inconclusive: 79.4 µM [inhibitor, partial curve, poor fit].
For `Cc1noc(C)c1Cc1ccc(C(=O)N2CCC(c3nc(CCOCC4CC4)no3)C2)o1` (configuration not stated), the Potency was inconclusive: 89.1 µM [inhibitor, single point].
With `COc1cccc(-c2cccc(C(=O)N3CCN(C(=O)c4ccc(Cl)cc4)CC3)c2)c1` the Potency was inconclusive: 50.1 µM [inhibitor, partial curve, poor fit].
In the case of `OCc1ccnc(-c2ccc(-c3ccn[nH]3)cc2)c1`, the “activity change, negative = cytotoxicity” value is reported as inactive: -0.0977%.
With `COc1cccc(C(=O)N2CCCN(c3ccc4nnc(-c5ccccc5)n4n3)CC2)c1` the “activity change, negative = cytotoxicity” value was inactive: -25.4%.
In the case of `CC(=O)N1CCC2(CC1)CN(C(=O)CN(C)C)Cc1ccccc1O2`, the “outcome” value is reported as “inactive”.
For `O=C(CO[C@H]1CN(Cc2ccc(C(=O)O)cc2)C[C@H]1F)Nc1ccccc1O`, the “outcome” value was “inactive [at 172 µM]”.
With `CC(=O)Nc1ccc(CN(Cc2ccc(NC(C)=O)cc2)C[C@H]2C[C@@H]3CCN2C[C@@H]3c2cc(-c3ccco3)nc(C)n2)cc1` the “activity change, negative = cytotoxicity” value was inactive: 4.29%.
For `COc1ccc(Cl)cc1-c1ccc2c(c1)C(=O)N1C[C@H](O)C[C@H]1C(=O)N2`, the Potency was inconclusive: 100 µM [inhibitor, partial curve].
In the case of `COc1ccc(-c2nc(C(C)C)nc3c2CN(C(=O)c2ccccc2F)CC3)cc1`, the Potency is reported as inconclusive: 79.4 µM [inhibitor, partial curve, poor fit].
In the case of `COc1ccc(-c2ccnc3nc(CCc4ccccc4)nn23)c(F)c1`, the Potency is reported as inconclusive: 56.2 µM [inhibitor, partial curve, poor fit].
With `Cc1cccc(N2CCN(C(=O)c3ccc4c(c3)N(C)C3CCCCCN3C4=O)CC2)c1` (configuration not stated) the Potency was active: 39.8 µM.
With `O=C(CNC(=O)c1cccc(-c2ccc(C(F)(F)F)cc2)c1)NCc1ccccc1F` the Potency was active: 22.4 µM.
